Reference: PubChem BioAssay AID1030 (National Center for Advancing Translational Sciences (NCATS), 2008)
Where “and” joins values, the source holds several entries; their conditions need not be identical. Equal values may be shown once. About 16,000 (7.3%) of roughly 220,000 compounds were called active. Inconclusive means that the source gave no clear call. Such entries were picked first, then a sample of the others. The call rests on the fitted dose curve; in most records, active means well fitted inhibition curve with a large enough effect (not every such curve was filed as active); inconclusive means small, poorly fitted or top-dose-only effect, or another doubt; inactive means no such curve, though single readings can be large or run the other way. Where the call is inconclusive, the potency comes from a doubtful curve fit.
Potency means the concentration at half of the fitted maximal effect; tags describe the fitted curve by direction and shape.
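Wherever activity, negative = inhibition is given: plate controls were no enzyme wells and a reference inhibitor.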

Each compound was assayed against Aldehyde dehydrogenase 1A1 (Homo sapiens) (UniProt P00352) (assay: qHTS Assay for Inhibitors of Aldehyde Dehydrogenase 1 (ALDH1A1)). Conditions: Purified ALDH1A1, NADH fluorescence, propionaldehyde substrate; series mostly up to 75.3 µM; activity, negative = inhibition: at the top concentration.
Sequence of UniProt P00352 (P00352 whole entry, looked up): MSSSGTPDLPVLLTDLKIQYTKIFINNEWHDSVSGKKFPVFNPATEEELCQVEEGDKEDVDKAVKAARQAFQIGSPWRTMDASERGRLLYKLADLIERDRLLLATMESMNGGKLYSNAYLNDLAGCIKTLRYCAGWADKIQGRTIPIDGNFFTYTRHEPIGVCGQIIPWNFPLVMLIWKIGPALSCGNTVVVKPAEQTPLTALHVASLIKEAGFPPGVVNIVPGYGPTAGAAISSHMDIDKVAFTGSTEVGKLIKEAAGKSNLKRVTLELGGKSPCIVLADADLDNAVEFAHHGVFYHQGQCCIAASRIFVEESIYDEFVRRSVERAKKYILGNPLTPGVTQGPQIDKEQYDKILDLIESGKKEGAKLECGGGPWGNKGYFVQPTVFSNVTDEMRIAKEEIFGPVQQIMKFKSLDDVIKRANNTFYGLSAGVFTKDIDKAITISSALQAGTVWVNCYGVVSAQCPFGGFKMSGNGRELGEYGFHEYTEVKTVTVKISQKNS
For `CN1CCC(N(C)c2nc(-c3ccc([N+](=O)[O-])cc3)nc3ccccc23)CC1`, the Potency was inconclusive: 44.7 µM [inhibitor, single point]. In the case of `O=C(c1ccco1)c1cn(Cc2ccccc2Cl)c2ccccc12`, the Potency is reported as inconclusive: 39.8 µM [inhibitor, single point]. For `Cc1cccc2c1=NC(=O)/C(=C/c1c(O)[nH]c(=O)[nH]c1=O)C=2`, the Potency was active: 0.501 µM. `CCCC1COC(Cn2cncn2)(c2ccc(Cl)cc2Cl)O1` (stereo unspecified) was tested, and the “activity, negative = inhibition” value was inactive: -10.1%. For `CCc1ccc(-n2c(O)c(/C=N/N3CCCCC3c3cccnc3)c(=O)[nH]c2=O)cc1` (stereo unspecified), the “activity, negative = inhibition” value was inactive: -13.6%. `C/C=C1/C[N@@+]2(C)CC[C@]34C(=C(C=O)[C@H]1C[C@H]32)Nc1ccccc14` was tested, and the Potency was inconclusive: 28.2 µM [inhibitor, partial curve]. With `CN(C)CCCCCCN(C)C` the Potency was inconclusive: 39.8 µM [inhibitor, single point]. With `CN(N)N=Nc1nc2c([nH]1)c(=O)n(C)c(=O)n2C` the Potency was inconclusive: 17.8 µM [inhibitor, partial curve]. For `Cc1cc(C(=O)CS(=O)(=O)c2ccc(F)cc2)cc(C)c1OC(=O)N(C)C`, the Potency was inconclusive: 0.189 µM [inhibitor, full curve, poor fit]. In the case of `CN1c2ccc([N+](=O)[O-])cc2CC2(C(=O)NC(=O)N(c3ccc(Br)cc3)C2=O)C1c1ccccc1` (stereo unspecified), the “activity, negative = inhibition” value is reported as inactive: -8.6%. With `CCCC1(CCC)C(=O)NC(=NCc2ccccc2)NC1=O` the Potency was inconclusive: 31.6 µM [inhibitor, single point]. In the case of `CN1C(=O)C(=Cc2ccc(Sc3ccccc3)o2)C(=O)N(C)C1=O`, the Potency is reported as inconclusive: 7.94 µM [inhibitor, full curve]. With `C=CCn1c(O)c(C(CC)=NCc2cc(OC)cc(OC)c2)c(=O)[nH]c1=O` the Potency was inconclusive: 39.8 µM [inhibitor, single point]. With `Fc1ccc(NC2=NCCS2)cc1Cl` the “activity, negative = inhibition” value was inactive: 6.95%. For `O=C(c1ccc2c3c(cccc13)CC2)C1CCCN(Cc2ncc[nH]2)C1` (stereo unspecified), the Potency was inconclusive: 39.8 µM [inhibitor, single point]. With `COc1ccccc1OCCCn1cc(C=O)c2ccccc21` the Potency was inconclusive: 28.2 µM [inhibitor, single point]. In the case of `Cc1[nH]c(=O)[nH]c(=O)c1/C=C/C(=O)OCC(C)C`, the Potency is reported as inconclusive: 7.08 µM [inhibitor, partial curve]. For `O=C(CCn1c(=O)oc2ccccc21)N1CCN(C(c2ccccc2)c2ccccc2)CC1`, the Potency was active: 17.8 µM. In the case of `Oc1ccc(Cl)cc1Sc1cc(Cl)ccc1O`, the Potency is reported as “inactive and inconclusive: 3.98 µM [inhibitor, single point]”. For `ClCC1CO1` (stereo unspecified), the Potency was inconclusive: 39.8 µM [inhibitor, single point]. For `CCCCCc1cc(O)c2c3c(c(=O)oc2c1)CN(C)CC3`, the Potency was inconclusive: 28.2 µM [inhibitor, partial curve]. For `Cc1cc(C(=O)CS(=O)c2ccc(F)cc2)cc(C)c1OC(=O)N(C)C` (stereo unspecified), the Potency was inconclusive: 14.1 µM [inhibitor, partial curve]. In the case of `CCOC(=O)c1ccc(N=Cc2c(O)n(-c3ccc(OC)cc3)c(=S)[nH]c2=O)cc1`, the Potency is reported as inconclusive: 39.8 µM [inhibitor, single point]. With `Cc1nn(-c2ccccc2)c2c1C(c1ccc(F)cc1F)C(C#N)=C(N)O2` (stereo unspecified) the Potency was active: 12.6 µM. In the case of `C=C1CC2C(CC[C@]3(C)C(=O)CCC23)[C@]2(C)C=CC(=O)C=C12` (stereo partly specified), the Potency is reported as active: 28.2 µM. `COc1ccc(C(=O)C2CCCN(Cc3ccon3)C2)c(OC)c1` (stereo unspecified) was tested, and the Potency was inconclusive: 28.2 µM [inhibitor, single point]. For `COC1C(O)C(C)O[C@@H](OC2CC[C@@]3(C)C4CC[C@]5(C)C(C6=CC(=O)OC6)CC[C@@]5(O)C4CC[C@@H]3C2)C1O` (stereo partly specified), the “activity, negative = inhibition” value was inactive: 3.79%. In the case of `COc1ccc(NC2CC(=O)N(C(C)C)C2=O)cc1` (stereo unspecified), the Potency is reported as inconclusive: 39.8 µM [inhibitor, single point]. For `CCCCSc1nc2c(cnn2-c2ccccc2)c(=O)n1N`, the Potency was inconclusive: 28.2 µM [inhibitor, single point]. For `O=C(CCCCCn1c(=S)[nH]c2ccccc2c1=O)N1CCC2(CC1)OCCO2`, the “activity, negative = inhibition” value was inactive: -6.66%. For `Cc1cccn2c(=O)c(C=Nc3ccccc3)c(NCc3ccco3)nc12`, the Potency was inconclusive: 28.2 µM [inhibitor, partial curve]. With `CN(C)P(=S)(Nc1ccccc1)C(Cl)(Cl)Cl` (stereo unspecified) the “activity, negative = inhibition” value was inactive: -9.21%. With `O=Cc1ccc2c(c1)OCO2` the Potency was inconclusive: 14.1 µM [inhibitor, partial curve]. With `CC(=O)CC(=O)C1C(=O)N(C)C(=O)N(C)C1=O` the Potency was inconclusive: 3.16 µM [inhibitor, partial curve]. For `COC(=O)CSc1n[nH]c(=S)s1`, the Potency was active: 11.2 µM. In the case of `Cc1cc(C(=O)N2CCC3(CC2)OCCO3)cs1`, the “activity, negative = inhibition” value is reported as inactive: -13.2%. With `O=c1cccc2n1CC1CC2CN(Cc2c(F)cccc2Cl)C1` (stereo unspecified) the Potency was inconclusive: 39.8 µM [inhibitor, single point]. For `CNNC`, the Potency was inconclusive: 37.7 µM [inhibitor, single point]. With `OC(c1cccc(Cl)c1)(c1cccc(Cl)c1)C1CN2CCC1CC2` (stereo unspecified) the “activity, negative = inhibition” value was inactive: 5.61%. For `C/C(=N\N1CCCCC1c1cccnc1)c1c(O)n(C2CCCCC2)c(=S)[nH]c1=O` (stereo unspecified), the Potency was inconclusive: 25.1 µM [inhibitor, single point]. With `CC(C)CCn1c(=O)c(C(=O)Nc2ccccc2S(N)(=O)=O)c(O)c2ccccc21` the Potency was inconclusive: 31.6 µM [inhibitor, partial curve]. `COc1cc(CN=C(C)c2c(O)n(C3CCCCC3)c(=O)[nH]c2=O)cc(OC)c1` was tested, and the Potency was inconclusive: 22.4 µM [inhibitor, single point]. For `COc1cc(/C=C(/C)[N+](=O)[O-])ccc1OCc1ccccc1Cl`, the Potency was active: 2.82 µM. `O=C1C=CC(=O)c2c(O)cccc21` was tested, and the Potency was active: 12.6 µM. `O=C(Cc1ccccc1[N+](=O)[O-])N1CCN(Cc2ccc3c(c2)OCO3)CC1` was tested, and the Potency was inconclusive: 22.4 µM [inhibitor, partial curve]. With `C=CCn1c(O)c(C(CC)=NC(C)c2ccccc2)c(=O)[nH]c1=O` (stereo unspecified) the Potency was inconclusive: 20 µM [inhibitor, single point].
